Measurements from the supplement of paper PMC3334620.
Whole data set: some 33,000 sequences, median “E-score (-0.5 to 0.5)” near -0.043, cut for the highest 2% near 0.37. This is one part of the list.

Target: T1, Upc2 (UniProt Q12151)
T1 sequence: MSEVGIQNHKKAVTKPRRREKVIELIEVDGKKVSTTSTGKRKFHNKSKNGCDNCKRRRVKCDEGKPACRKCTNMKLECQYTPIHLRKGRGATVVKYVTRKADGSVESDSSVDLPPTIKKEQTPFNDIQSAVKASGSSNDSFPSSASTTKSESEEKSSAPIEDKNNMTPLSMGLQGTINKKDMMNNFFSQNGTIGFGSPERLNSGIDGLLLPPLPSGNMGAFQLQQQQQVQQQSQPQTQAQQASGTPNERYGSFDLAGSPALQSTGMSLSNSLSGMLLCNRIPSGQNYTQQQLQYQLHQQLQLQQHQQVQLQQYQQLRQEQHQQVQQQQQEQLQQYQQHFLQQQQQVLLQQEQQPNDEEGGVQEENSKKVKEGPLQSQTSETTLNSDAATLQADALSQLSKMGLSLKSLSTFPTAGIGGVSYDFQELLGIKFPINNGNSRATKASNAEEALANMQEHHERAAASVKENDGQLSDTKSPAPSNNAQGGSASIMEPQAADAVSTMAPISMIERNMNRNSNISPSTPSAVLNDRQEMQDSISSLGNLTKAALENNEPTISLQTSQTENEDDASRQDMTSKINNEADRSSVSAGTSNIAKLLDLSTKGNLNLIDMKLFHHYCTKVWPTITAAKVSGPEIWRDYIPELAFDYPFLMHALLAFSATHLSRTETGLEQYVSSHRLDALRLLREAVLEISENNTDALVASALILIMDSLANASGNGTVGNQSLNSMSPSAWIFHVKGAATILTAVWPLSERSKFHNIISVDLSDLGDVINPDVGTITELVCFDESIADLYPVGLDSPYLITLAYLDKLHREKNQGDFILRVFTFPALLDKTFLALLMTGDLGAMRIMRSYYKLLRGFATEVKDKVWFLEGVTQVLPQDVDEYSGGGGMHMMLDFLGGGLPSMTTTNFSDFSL
Assay: PBM E-score (8-mer binding enrichment) (E-score (-0.5 to 0.5)); higher = stronger / more preferred TF binding; most listed sequences are background and not binding sites
Details: protein concentration: 200 nM; construct: GST-full length
Procedure, shortened: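 Full-length yeast transcription factors or their DNA-binding domains, GST-tagged and expressed with PURExpress, were applied at about 100-200 nM to universal all-10-mer Agilent arrays. These arrays had been made double-stranded by primer extension on fresh or once-stripped slides. Detection used fluorescent anti-GST, normalisation used masliner, and E-scores for ungapped eight-base words pooled with reverse complements came from the Universal PBM Analysis Suite.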

Going from GAGTAGAC to CAAAGCTC, the “PBM E-score” value falls from -0.0169 to -0.0741.

First: GAGCGCTA
Second: GCCAGGAA
The “PBM E-score” value of the first is higher: -0.0659 for the first, -0.103 for the second.

Going from AGTGACAT to GACCGTCC, the “PBM E-score” value rises from -0.207 to -0.156.

First: AACACGTA
Second: AACGTAGG
The “PBM E-score” value of the first is higher: 0.281 for the first, -0.116 for the second.

First: CAAGTAAG
Second: CAGCGAGG
The “PBM E-score” value of the first is lower: -0.254 for the first, -0.224 for the second.

Compared with AAACGATT, GCATCTGA is lower in “PBM E-score” value: 0.449 for the first, -0.208 for the second.

First: CCATTTGC
Second: ACGAACCA
The “PBM E-score” value of the first is lower: -0.00531 for the first, 0.376 for the second.

First: AGATTCCT
Second: GCCTATAC
The “PBM E-score” value of the first is lower: -0.332 for the first, 0.276 for the second.

Going from CAAGGTGA to ATAACCGA, the “PBM E-score” value rises from -0.206 to 0.271.

First: GCAGTGCC
Second: ATATGTCA
The “PBM E-score” value of the first is lower: -0.274 for the first, -0.0697 for the second.

First: GGTCACGA
Second: CGGCAGAA
The “PBM E-score” value of the first is higher: -0.086 for the first, -0.0939 for the second.

Compared with TGGAACCA, CGCAGCCA is lower in “PBM E-score” value: -0.0613 for the first, -0.0707 for the second.

Going from TCACAAGA to ATGCGTAC, the “PBM E-score” value rises from -0.2 to 0.282.

Going from GTTTGCGA to CGCCGAAC, the “PBM E-score” value falls from 0.277 to 0.192.

Going from CTGATGAA to AACCTGTC, the “PBM E-score” value rises from -0.0906 to 0.0752.

Compared with ATTCGACC, CGCGTTCC is higher in “PBM E-score” value: -0.00888 for the first, 0.223 for the second.

Compared with TGTAATAA, GAGTGAGA is lower in “PBM E-score” value: -0.0543 for the first, -0.214 for the second.

Compared with ATAGCCAT, AGTTGGGA is lower in “PBM E-score” value: -0.0513 for the first, -0.13 for the second.

Compared with CTACCAGA, ACGACACA is higher in “PBM E-score” value: -0.122 for the first, 0.321 for the second.

Compared with ATAGCTCG, GCGCCAGA is lower in “PBM E-score” value: 0.159 for the first, -0.0862 for the second.

First: TCCATTAA
Second: AAAGTGCG
The “PBM E-score” value of the first is lower: -0.128 for the first, -0.00498 for the second.

Going from GTATCCAC to TTAGCAAA, the “PBM E-score” value falls from 0.11 to -0.0412.

First: GACATAGA
Second: CTCAAAAG
The “PBM E-score” value of the first is lower: -0.131 for the first, -0.0616 for the second.

First: CGTATGCC
Second: TACCGCCA
The “PBM E-score” value of the first is higher: 0.372 for the first, -0.0909 for the second.

First: TGTACAAA
Second: AGCTCTGC
The “PBM E-score” value of the first is higher: 0.0122 for the first, -0.424 for the second.

First: AGCTTGCG
Second: AATGTAGA
The “PBM E-score” value of the first is higher: -0.0873 for the first, -0.16 for the second.

Going from AGAGTTAG to CTGTATAA, the “PBM E-score” value rises from -0.199 to 0.156.

Compared with ATTCATAG, GCTTGTAC is higher in “PBM E-score” value: -0.186 for the first, 0.237 for the second.

Going from CAATTGGC to ACCGAACA, the “PBM E-score” value rises from 0.0559 to 0.0985.

Compared with CCGGAGCA, TGACGCCA is lower in “PBM E-score” value: -0.0221 for the first, -0.0243 for the second.

First: GAGCCGAC
Second: CGCCTATA
The “PBM E-score” value of the first is lower: -0.121 for the first, 0.234 for the second.

First: GCCTTAGA
Second: CCTACACC
The “PBM E-score” value of the first is lower: -0.138 for the first, -0.131 for the second.

Compared with CATATGGA, AAATTAAT is lower in “PBM E-score” value: 0.0409 for the first, 0.0208 for the second.

Compared with GACGGAGA, ACTAACCC is lower in “PBM E-score” value: -0.106 for the first, -0.252 for the second.

First: AGTCATCG
Second: TCGTGTAA
The “PBM E-score” value of the first is lower: 0.124 for the first, 0.311 for the second.

Going from ATTGCCCA to CTGAGAAG, the “PBM E-score” value falls from -0.0428 to -0.153.

Going from CTGCCTTC to GCTCACCC, the “PBM E-score” value rises from -0.192 to -0.115.

Going from CGGGTCAG to CGCGAAAG, the “PBM E-score” value rises from -0.0198 to 0.113.

Compared with CTTACTAA, GATGAGAC is lower in “PBM E-score” value: 0.0609 for the first, -0.115 for the second.

Going from CCTATTGA to AGACCTAT, the “PBM E-score” value rises from -0.0766 to 0.118.

First: AAGCCCAT
Second: AAGGCCAA
The “PBM E-score” value of the first is lower: -0.112 for the first, -0.0421 for the second.

Going from AACATCAT to GACTCTTA, the “PBM E-score” value falls from -0.094 to -0.131.

Going from CCCTGAAC to CTCTGAGA, the “PBM E-score” value falls from 0.253 to -0.221.
